Measured values reported in the supplement of paper PMC3334620.
Whole data set: some 33,000 sequences, median “E-score (-0.5 to 0.5)” near -0.012, cut for the highest 2% near 0.29. Some of the results follow.

The sequences below were run against T1, Ybr033w (UniProt P38073) (assay: PBM E-score (8-mer binding enrichment) (E-score (-0.5 to 0.5)); higher = stronger / more preferred TF binding; most listed sequences are background and not binding sites). Conditions: protein concentration: 200 nM; construct: GST-full length.
T1 sequence: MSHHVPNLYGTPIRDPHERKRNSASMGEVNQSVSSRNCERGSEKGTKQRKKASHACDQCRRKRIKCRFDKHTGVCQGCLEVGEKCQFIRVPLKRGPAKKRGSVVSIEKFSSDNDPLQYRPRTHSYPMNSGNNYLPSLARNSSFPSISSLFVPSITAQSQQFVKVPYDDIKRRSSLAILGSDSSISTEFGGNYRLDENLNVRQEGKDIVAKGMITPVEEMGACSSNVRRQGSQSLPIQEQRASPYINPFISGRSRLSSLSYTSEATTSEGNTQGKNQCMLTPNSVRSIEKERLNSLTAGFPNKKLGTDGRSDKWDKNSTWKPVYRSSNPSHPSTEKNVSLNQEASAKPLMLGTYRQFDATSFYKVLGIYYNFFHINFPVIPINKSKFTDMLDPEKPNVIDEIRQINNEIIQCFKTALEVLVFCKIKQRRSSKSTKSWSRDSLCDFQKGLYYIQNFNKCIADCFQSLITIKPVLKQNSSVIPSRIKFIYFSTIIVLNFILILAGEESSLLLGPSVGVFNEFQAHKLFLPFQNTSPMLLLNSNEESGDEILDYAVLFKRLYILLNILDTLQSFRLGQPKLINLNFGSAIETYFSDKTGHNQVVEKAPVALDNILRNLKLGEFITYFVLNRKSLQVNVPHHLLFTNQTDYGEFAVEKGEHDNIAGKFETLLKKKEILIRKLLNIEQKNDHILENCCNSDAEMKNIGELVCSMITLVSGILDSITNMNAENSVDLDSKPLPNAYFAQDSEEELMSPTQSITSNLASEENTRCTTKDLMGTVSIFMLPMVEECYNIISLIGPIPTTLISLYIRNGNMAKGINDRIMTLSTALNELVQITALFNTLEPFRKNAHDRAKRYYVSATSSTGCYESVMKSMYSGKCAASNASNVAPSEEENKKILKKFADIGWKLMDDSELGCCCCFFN
In short: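 Universal all-10-mer Agilent arrays, fresh or stripped once, were converted to double-stranded form by primer extension. GST-tagged yeast transcription factors from PURExpress in vitro transcription/translation, full-length or DNA-binding domain only, were applied at about 100-200 nM and detected with fluorescent anti-GST. After masliner normalisation, the Universal PBM Analysis Suite scored each ungapped eight-base word together with its reverse complement by E-score.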

| Sequence | PBM E-score |
| --- | --- |
| AGTCCGTG | -0.282 |
| CCTTGACC | -0.177 |
| GGCGAGAA | 0.17 |
| GAGGGTCC | -0.364 |
| AACTCATG | 0.182 |
| CGTATGTA | 0.108 |
| TACTCACA | 0.158 |
| ACGGCACG | -0.0907 |
| AATTGCAG | -0.0339 |
| CACATAAA | 0.239 |
| ATTGATAC | 0.251 |
| CAACACTC | 0.0698 |
| GGTGTGAC | -0.193 |
| GCCGTGTA | -0.122 |
| TAGTCAGA | -0.0781 |
| CGCCCATA | -0.116 |
| GAGTCAAA | -0.0673 |
| AGCTAAGA | 0.00641 |
| ACTGTTGC | 0.00948 |
| GCCGACCC | -0.296 |
| ACGTCATC | -0.148 |
| CATTCTCG | 0.0112 |
| CCATGGGC | -0.165 |
| CCCCGCAC | -0.179 |
| AATGTAAC | 0.119 |

| Sequence | PBM E-score |
| --- | --- |
| GGAGAGGA | -0.238 |
| AGCAAATC | 0.126 |
| TAAATGTA | 0.192 |
| GAGGGTTA | -0.0439 |
| CCAATCCG | 0.0149 |
| AGGGTCAC | -0.281 |
| ATCTAGAC | 0.107 |
| CTCGAAGA | -0.228 |
| CATCTCAA | 0.119 |
| GACTTCCA | -0.0265 |
| GTCTGAGA | -0.163 |
| AAATCTCA | 0.145 |
| CAGAATAC | 0.0363 |
| TGACCGCA | -0.102 |
| CGCTCAGC | -0.135 |
| CGAGTGAA | 0.033 |
| CGTCTGCA | -0.115 |
| GAAATGTA | 0.141 |
| TGAATTCA | 0.102 |
| AGATGTTA | 0.0254 |
| GGACATCA | 0.00371 |
| AAAAAGTT | 0.314 |
| AGATATGA | 0.137 |
| AAACGCCT | -0.175 |
| CAGATACG | -0.134 |

| Sequence | PBM E-score |
| --- | --- |
| GATCGTGA | -0.0504 |
| CCACGTCA | -0.104 |
| AAAGGAGA | 0.00524 |
| AAGGATAA | 0.219 |
| GCTTGACC | -0.149 |
| GGAAGCGA | -0.072 |
| ACCGGCTA | -0.125 |
| ATGTCCGG | -0.131 |
| AGAAACGC | -0.0719 |
| GGCAGGTA | -0.169 |
| CCAAGGTA | -0.00263 |
| AAAGACTC | 0.0554 |
| CCATGCCG | -0.107 |
| GTGTTAAA | 0.121 |
| ATATTAGA | 0.273 |
| ATATCGTA | 0.0551 |
| GTTAGGTA | 0.163 |
| AAGGACAG | -0.0937 |
| CTGCGAAC | -0.182 |
| AATGGAGG | -0.111 |
| AGATATAC | 0.137 |
| ATAGAGCC | -0.14 |
| ACAGGAGG | -0.256 |
| GCGACGGA | -0.00479 |
| ACAACTAC | 0.126 |

| Sequence | PBM E-score |
| --- | --- |
| GTAGTAAA | 0.188 |
| CTATCAAG | 0.0801 |
| GGGGCCTA | -0.389 |
| GTCTTCAC | -0.185 |
| ATAATTAC | 0.353 |
| ACGATAAT | 0.163 |
| ACATAATG | 0.214 |
| GTCTTCCA | -0.0731 |
| GCACGTAA | -0.0247 |
| CGCTATAG | -0.0982 |
| ATCCGCAG | 0.155 |
| CTGTGGTC | -0.109 |
| AGCATTAA | 0.0878 |
| AAACCCCA | -0.0215 |
| ACGCGCGC | -0.0247 |
| CTATCAGA | -0.0376 |
| AGGCTGGG | -0.165 |
| ACCTCTAA | -0.0182 |
| CGATATTC | 0.123 |
| AATACATG | 0.222 |
| TGTATTAA | 0.272 |
| ACGACCAG | -0.158 |
| CGAAACTC | 0.0214 |
| ATAGACTG | -0.0524 |
| AGCAGGAA | 0.0849 |

| Sequence | PBM E-score |
| --- | --- |
| AAGGATCT | -0.0153 |
| CCGGAACG | -0.0381 |
| CTGTGATA | 0.0572 |
| ATCCGAAT | 0.257 |
| CGTCGTCA | -0.143 |
| TCGAACCA | -0.0626 |
| ACCGATTC | -0.0871 |
| GGCGGTTA | -0.122 |
| GCTCGTAC | -0.0573 |
| GCAAGAGA | -0.134 |
| AGTCAGGC | -0.0549 |
| GAATCATC | 0.116 |
| CATCTGAA | 0.18 |
| ATACTATC | 0.109 |
| GCGTGCCA | -0.302 |
| GATTCCAA | 0.0979 |
| CCCAGGAC | -0.354 |
| CGTGTAAG | 0.147 |
| TATGACCA | 0.0434 |
| AATACTAC | 0.223 |
| ACGCTATC | -0.0616 |
| AGTAGACG | 0.0471 |
| GAAGTGTA | -0.166 |
| CCTCCGTC | -0.188 |
| AACTGGAG | 0.0172 |

| Sequence | PBM E-score |
| --- | --- |
| CCGGTACC | -0.158 |
| AACGTATC | -0.0815 |
| ATAGAAAC | 0.206 |
| AGGTCTGC | -0.104 |
| AAGAGCTT | 0.0991 |
| GTAACGGA | 0.0744 |
| GTAAGGAC | -0.0859 |
| ACAGGACG | -0.166 |
| GTTTAAAC | 0.233 |
| AACTTCGC | 0.043 |
| CTGCGCCA | -0.0965 |
| ATAATGAC | -0.0726 |
| AGGTTGAG | -0.167 |
| TGTCCGAA | 0.0982 |
| AACCTCTA | -0.0942 |
| CTGTTTTC | 0.032 |
| ACAGGAGC | -0.0855 |
| GTGCGGTA | -0.0389 |
| CCAGCAGG | -0.311 |
| AGTAGAGC | -0.233 |
| AGCTCAAT | 0.06 |
| CTTACTCA | 0.071 |
| GATGAAGA | -0.164 |
| AGAGTGGC | -0.198 |
| GGCTCCAA | -0.0151 |

| Sequence | PBM E-score |
| --- | --- |
| ATCGCATC | -0.087 |
| GAGCCCGC | -0.32 |
| AGTCTGTA | -0.176 |
| CAGTCGAC | 0.106 |
| ATAGACCC | 0.00396 |
| ACCCATGA | -0.0395 |
| GCATACCA | -0.116 |
| ACCCCCGA | -0.193 |
| TGGATCAA | 0.377 |
| ACGGATGC | -0.0974 |
| CCAAATCA | 0.0506 |
| CACGGAGC | -0.13 |
| GGGAACTA | -0.0908 |
| GGACGTAA | -0.0697 |
| CGGGAAAG | -0.211 |
| ACGGTCAT | -0.0709 |
| CTTCTGTC | 0.0598 |
| CTCTGACC | -0.237 |
| CGCATTTC | -0.0058 |
| ACATGTAC | -0.0188 |
| GCTCGTCA | -0.162 |
| GGCTAACC | -0.21 |
